Data on 23 compounds can be found in ChEMBL document CHEMBL4888484, “Replenishing the malaria drug discovery pipeline: Screening and hit evaluation of the MMV Hit Generation Library 1 (HGL1) against asexual blood stage Plasmodium falciparum ,using a nano luciferase reporter read-out” (2022).

Hit rate of the full screen: of about 150,000 compounds, about 540 (0.36%) showed an effect of 50% or more. The list shows a part of the results.

The subject of the assay is Plasmodium falciparum. Briefly: Primary screen in NF54 nanoGlo assay, in single point, at 2uM, 72h; a lower Z score goes with more inhibition. Type of assay: functional, Erythrocyte. The note with it: timepoint 72 hour.
Regarding `CN(Cc1cccc2cccnc12)C(=O)c1cc2cc(C3(O)CCN(CC(C)(C)C)CC3)ccc2o1`, the “% Inhibition” value is given as 8% and the Z score was -1.03.
For `COC[C@H](C)NS(=O)(=O)c1cccc(F)c1` the same measures were 4% and -0.57.
`CCCCOC1CC(N(C)C(=O)c2ccc(=O)n(CC)n2)C1(C)C` (stereo unspecified): the “% Inhibition” value is on record as -9% and the Z score is reported as 0.97.
For `Cc1cc(-n2nc(C)cc2NC(=O)Cc2ccon2)nc(C)n1`, the “% Inhibition” value was determined as 5% and the Z score is recorded as -1.05.
Consider `CC(=O)N1CCN(C(=O)c2cc(N3C(=O)CCS3(=O)=O)ccc2Cl)CC1`, for which the “% Inhibition” value amounted to 3% and the Z score is -0.54.
For `Cc1cc(C)c(S(=O)(=O)NCCc2cnoc2)s1`, in that order: -7% and 1.09.
As to `COc1ccc(CC(=O)Nc2ccc(N3CCN(C4CCCC4)C3=O)nc2)cc1`, the “% Inhibition” value is on record as -2% and the Z score came out at 0.22.
For `CC(C)[C@@H]1NC(=O)[C@@H]2C[C@H](NC(=O)c3cccnc3Oc3ccc(Cl)cc3)CN2C1=O`, the “% Inhibition” value is -21% and the Z score was 2.39.
Take `Cc1oc(-c2ccccc2)nc1CN1CCC[C@H](c2nnc(N)o2)C1`: the “% Inhibition” value is on record as -4% and the Z score amounted to 0.7.
Consider `COC(=O)c1ccc(N2CCN(C(=O)[C@]3(C)CCCCO3)CC2)cc1`, for which the “% Inhibition” value is 17% and the Z score is -2.99.
For `CCc1nc(CC)n(Cc2nc(C)c(C)s2)n1` the same measures were 2% and -0.22.
In the case of `CCCCc1nc(CN2CCC(CCC(=O)NCc3ccc(F)cc3)CC2)c[nH]1`, the “% Inhibition” value is given as -2% and the Z score is reported as 0.34.
As for `Cc1ccc(Cc2nc(N3CCCN(C(=O)Nc4ccc(F)cc4F)CC3)c3c(-c4cccnc4)noc3n2)cc1`, the “% Inhibition” value is -8% and the Z score is on record as 0.9.
Consider `CCN(CCc1nc2ccccc2[nH]1)C(=O)NC1CCN(C(C)C)CC1`, for which the “% Inhibition” value is -13% and the Z score is listed as 1.65.
For `NC(=O)Cc1nc(C2(c3ccc(Cl)cc3)CCC2)n(CCO)n1`, in that order: -11% and 1.45.
For `Cc1ncc2n1CCC(C(=O)N1CCCC(CNC(=O)c3ccccc3)C1)C2` (stereo unspecified) the same measures were -8% and 1.72.
For `Cc1nc(CC(=O)N2CCC3(CCOCC3)C2)cs1`, the “% Inhibition” value is listed as -4% and the Z score amounted to 0.49.
With `FC(F)Cn1cc(CN2CCc3n[nH]c(C(F)F)c3C2)cn1`, the “% Inhibition” value is listed as -8% and the Z score turned out to be 1.2.
On to `CCN(C(=O)NCCc1nc2ccccc2c(=O)[nH]1)[C@H]1CCS(=O)(=O)C1`, for which the “% Inhibition” value is 1% and the Z score is on record as -0.16.
As for `Cc1ccc2cc(CN3CCN(C(N)=O)CC3)c(=O)[nH]c2c1`, the “% Inhibition” value was -8% and the Z score amounted to 0.97.
For `COc1cccc2cc(C(=O)N3CCC(Oc4cc(C)n(C)c(=O)c4)CC3)oc12`, in that order: 1% and -0.19.
For `O=c1[nH]c(CN2CCCCCCC2)nc2ccccc12` the same measures were -7% and 1.09.
As for `O[C@@H]1CC[N+](Cc2ccccc2)(Cc2ccccc2)O1`, the “% Inhibition” value is given as -14% and the Z score was determined as 1.38.

In general, % Inhibition refers to the relative decrease from the control value, in per cent.
